# Hit rate of the full screen: of about 310,000 compounds, about 2,200 (0.71%) showed an effect of 50% or more. Effects have a minus sign here. The list shows a part of the results.
# Target: human ether-à-go-go-related gene (hERG) potassium channel (human, UniProt Q12809)
# Assay: primary screen, population patch clamp on CHO cells stably expressing hERG
# Sequence of human ether-à-go-go-related gene (hERG) potassium channel (Q12809 whole entry, looked up): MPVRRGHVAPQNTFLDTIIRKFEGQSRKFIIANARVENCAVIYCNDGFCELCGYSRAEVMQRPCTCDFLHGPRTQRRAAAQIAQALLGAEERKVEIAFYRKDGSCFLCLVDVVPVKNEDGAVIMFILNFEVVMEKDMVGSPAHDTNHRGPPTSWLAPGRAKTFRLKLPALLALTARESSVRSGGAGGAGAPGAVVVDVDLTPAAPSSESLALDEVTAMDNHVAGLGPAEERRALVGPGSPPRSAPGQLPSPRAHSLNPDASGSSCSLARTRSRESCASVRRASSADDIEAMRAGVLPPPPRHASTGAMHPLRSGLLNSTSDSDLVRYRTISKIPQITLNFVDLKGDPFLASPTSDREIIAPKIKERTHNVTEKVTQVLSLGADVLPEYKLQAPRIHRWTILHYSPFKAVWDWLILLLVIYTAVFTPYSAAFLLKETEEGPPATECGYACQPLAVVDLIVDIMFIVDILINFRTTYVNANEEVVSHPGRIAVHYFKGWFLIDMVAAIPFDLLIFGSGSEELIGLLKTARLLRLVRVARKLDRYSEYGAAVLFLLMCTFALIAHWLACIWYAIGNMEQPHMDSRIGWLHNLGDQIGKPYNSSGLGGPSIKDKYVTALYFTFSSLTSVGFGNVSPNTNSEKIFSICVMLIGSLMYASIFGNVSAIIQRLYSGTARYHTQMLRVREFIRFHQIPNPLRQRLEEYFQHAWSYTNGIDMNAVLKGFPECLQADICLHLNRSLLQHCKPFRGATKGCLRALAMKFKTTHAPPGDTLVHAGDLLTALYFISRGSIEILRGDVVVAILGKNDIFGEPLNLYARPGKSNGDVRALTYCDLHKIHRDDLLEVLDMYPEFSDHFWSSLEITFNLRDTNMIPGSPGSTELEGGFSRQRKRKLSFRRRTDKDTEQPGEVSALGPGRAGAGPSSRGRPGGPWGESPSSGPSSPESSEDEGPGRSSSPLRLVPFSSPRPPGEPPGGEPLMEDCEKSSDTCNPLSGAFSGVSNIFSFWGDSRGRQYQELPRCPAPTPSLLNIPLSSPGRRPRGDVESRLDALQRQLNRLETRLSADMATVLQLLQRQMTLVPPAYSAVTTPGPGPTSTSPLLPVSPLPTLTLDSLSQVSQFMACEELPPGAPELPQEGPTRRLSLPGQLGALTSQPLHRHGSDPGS
row,SMILES,"hERG current change (%, negative = inhibition) at 1uM"
1,Cc1cc(C)nc(SC2CC(=O)N(c3ccc(Cl)cc3)C2=O)n1 (stereo not drawn),2.32%
2,Brc1ccc2[nH]c3c(N4CCc5ccccc5C4)ncnc3c2c1,8.07%
3,CN1C2CCC1/C(=C\c1ccccc1)C(=O)/C2=C\c1ccccc1,9.24%
4,O=C(CSc1nc2c(cnn2-c2ccccc2)c(=O)[nH]1)N1N=C(c2cccs2)CC1c1ccc(F)cc1 (stereo not drawn),13.9%
5,COc1cc(C2C(C(=O)c3ccco3)=C(O)C(=O)N2CCc2ccccc2)ccc1O (stereo not drawn),11.4%
6,Cc1cc(C(=O)COC(=O)CNC(=O)c2ccco2)c(C)n1Cc1ccco1,10.3%
7,O=S1(=O)CCN(OCc2ccc(Cl)cc2)CC1,8.98%
8,CCn1c(NC(=S)Nc2ccccc2)nc2ccccc21,9.97%
9,Cc1cccc(OCC(=O)Nc2ccc3nc(C)sc3c2)c1,14.1%
10,CC1CCCC(C)N1C(=O)COC(=O)Cc1ccc(F)cc1 (stereo not drawn),22.5%
11,CN(CCC1CCCCO1)Cc1cn(C)nc1-c1ccc2c(c1)OCCO2 (stereo not drawn),14.1%
12,CCOc1ccc(NC(=S)N2CCC(c3nc4ccccc4[nH]3)CC2)cc1,-0.321%
13,Cc1cc(C)c(N=Cc2c(O)n(-c3nccs3)c(=O)c3ccccc23)c(C)c1,-2.68%
14,CC(Oc1ccccc1)C(=O)NNC(=O)c1ccccn1 (stereo not drawn),-0.816%
15,COc1ccc(C(=O)c2ccccc2)cc1,12.5%
16,CC(C)(C)NC(=O)C(c1ccco1)N(Cc1ccc2c(c1)OCO2)C(=O)c1snc(C(N)=O)c1N (stereo not drawn),9.28%
17,CCOc1ccc(C(c2c(C)[nH][nH]c2=O)c2c(C)[nH][nH]c2=O)cc1OCC,4.24%
18,OCc1nc2ccccc2n1Cc1c(F)cccc1Cl,5.54%
19,COC(=O)c1ccc(COc2cc(O)c3c(c2)OC(C)(C)CC3=O)cc1,9.66%

row,SMILES,"hERG current change (%, negative = inhibition) at 1uM"
1,O=C(O)c1c(NC(=O)N(CCO)Cc2ccccc2)sc2c1CCCC2,12.9%
2,CC(=O)c1ccc(N2CCN(C(=O)CCc3ccccc3)CC2)cc1,-5.53%
3,CCOC(=O)C1CCCN(S(=O)(=O)c2ccc(Br)s2)C1 (stereo not drawn),0.414%
4,O=C(Nc1ccc2c(c1)OCO2)c1ccc[n+]([O-])c1,24.4%
5,Cc1ccc(S(=O)(=O)N2[C@@H](c3ccc(F)cc3)C(C(=O)O)=CC[C@H]2c2ccc3c(c2)OCO3)cc1,8.19%
6,CN(C)C(=S)NC(=O)C12CC3CC(C)(CC(C)(C3)C1)C2,11.5%
7,O=C(CC1C(=O)NCCN1Cc1cccc(F)c1F)NCCCC1CCCC1 (stereo not drawn),11.5%
8,Cc1cc(C)c(C)c(OCCOCCNCc2ccccc2)c1.O=C(O)C(=O)O,-0.588%
9,CCCc1ccc(S(=O)(=O)NCC2CCCN2CC)cc1 (stereo not drawn),-7.03%
10,Cc1ccc(NC(=O)c2ccccc2NC(=O)CCC(=O)O)cc1,6.21%
11,Cc1ccc(NC(=O)c2cccc3ccccc23)cc1,11.9%
12,CCS(=O)(=O)N1CCC(C(=O)N2CCC3(CC2)OCCO3)CC1,9.99%
13,Cc1cc(C)n(-c2nc(NCC(C)O)c3c4c(sc3n2)COC(C)(C)C4)n1 (stereo not drawn),14.2%
14,Cn1nc(NC(=O)C(C)(C)C)c2c(F)cccc21,3.94%
15,COc1cccc2cc(C(=O)N3CCN(c4ccccn4)CC3)c(=O)oc12,11.8%
16,CCOc1ccc2c(c1)OC(c1ccc(C)cc1)(C(F)(F)F)NC2=O (stereo not drawn),11.9%
17,CC(CCc1ccco1)NC(=O)CCc1nnc2ccc(NCc3ccccc3)nn12 (stereo not drawn),11.8%
18,COc1cccc(NC(=O)COc2cccc(-n3cnnn3)c2)c1,-22.8%
19,Cn1c(CNC(=O)c2ccccc2F)nnc1SCc1nc2ccccc2c(=O)[nH]1,-1.67%

row,SMILES,"hERG current change (%, negative = inhibition) at 1uM"
1,CC(=O)Oc1ccc2oc(C)c(C(=O)N3CCOCC3)c2c1,4.52%
2,CCOc1ccccc1OCC(=O)OCC(=O)Nc1ncc(Cl)cc1Cl,7.2%
3,COCCn1c(=NC(=O)c2ccc(S(=O)(=O)N3CCc4ccccc4C3)cc2)sc2cc(OC)ccc21,7.57%
4,CCc1cc(C(=O)NCC(C)(C)N2CCOCC2)sc1C,17%
5,COc1ccccc1-c1nnc(SCC(=O)NNC(=O)c2ccccc2F)n1C,4.38%
6,CC(OC(=O)c1nccnc1N)C(=O)Nc1ccc(S(=O)(=O)N2CCCC2)cc1 (stereo not drawn),7.6%
7,CCCOc1cccc(C2C(C(=O)c3ccc(C)o3)=C(O)C(=O)N2c2nc(C)c(C(C)=O)s2)c1 (stereo not drawn),15.9%
8,O=C(CSc1nnc(-c2cccs2)o1)N1CCCc2ccccc21,5.71%
9,Cc1ccc(S(=O)(=O)N(C)c2ccc(C(=O)NCc3ccccc3F)cc2)cc1,9.63%
10,CCOC(=O)c1oc2ccc(CNCCO)c(Cl)c2c1C,12.9%
11,CCSc1nc(O)cc(=O)n1CC,9.67%
12,CCOC(=O)/C(=N\Nc1cccc(C(F)(F)F)c1)N1CCOCC1,7.97%
13,CCCCOCCCNC(=O)c1c(-c2ccccc2)noc1C,9.79%
14,C=CCc1ccc(OCc2ccc(C(=O)O)o2)c(OC)c1,17.7%
15,Cc1cc(C)n(-c2ccc(F)cc2CN2CCN(Cc3ccccc3)C(CCO)C2)n1 (stereo not drawn),-14.3%
16,Cc1cccc(-n2c(C)nc3sccc3c2=O)c1,19.8%
17,C[n+]1ccccc1/C=C1\Sc2ccccc2N1CCO.[I-],6.6%
18,COc1ccc(COC(=O)C2CCN(S(=O)(=O)c3ccc(Cl)cc3)CC2)cc1,20.4%
19,CCc1nc(SCC(=O)c2ccccc2)c2ccccc2n1,8.99%
